Laboratory results as given in PubChem BioAssay AID463173 (ICCB-Longwood Screening Facility, Harvard Medical School, 2010).
About 4,300 (8.3%) of roughly 52,000 compounds were called active. Cut-off read from the data, not from the text of the source: active = survival mostly below about 52% (no sharp cut-off); inactive = mostly above about 56%. The list shows a part of the results.

Tested on: DeltatarO mutant
Assay: S. aureus survival, RN4220 and DeltatarO strains – OD600, teichoic acid synthesis inhibitors, primary screen (AID 463173)
Settings: S. aureus RN4220 wild type/DeltatarO growth, OD600, 18 h, hits give low values, screened at 18.75 µg/mL (by protocol)

| Compound | survival |
| --- | --- |
| COc1ccccc1OCC(O)CN (stereo not given) | inactive: 76% |
| O=C(COc1ccccc1Cl)Nc1ccc2oc(-c3ccccc3F)nc2c1 | active: 67% |
| COCCNC(=O)CCCn1c(=O)c2cc(OC)c(OC)cc2n(CC(=O)Nc2ccc(F)cc2)c1=O | inactive: 93% |
| CCOC(=O)c1ccc(NC(=O)Cn2cc(C(=O)c3ccc(CC)cc3)c(=O)c3ccc(C)nc32)cc1 | inactive: 100% |
| CCN1c2ccccc2-c2nc(SCC(=O)NCc3ccc(C)cc3)ncc2S1(=O)=O | inactive: 105% |
| CCC(=O)Nc1cccc(C)c1 | inactive: 80% |
| CCOC(=O)c1cnc2ccccc2c1NCCc1ccc(OC)c(OC)c1 | active: 33% |
| COc1ccc(CNC(=O)c2cnc3sc(N4CCCCCC4)nn3c2=O)cc1 | inactive: 101% |
| O=S(=O)(c1cccc2nsnc12)N(CCOc1ccccc1)C1CCCCC1 | inactive: 90% |
| CCn1c(CSc2ncccn2)nnc1SCC(=O)N1CCc2ccccc21 | inactive: 98% |
| O=C1CCC(C2CCC3(CC2)OCCO3)CC1 | inactive: 99% |
| O=C(CN1C(=O)CSC1=O)CN1C(=O)CSC1=O | inactive: 101% |
| O=C(CCS(=O)(=O)c1cc2c(cc1Cl)NC(=O)CO2)NCc1ccccc1Cl | inactive: 83% |
| Cc1cccc(OCc2nnc(SCC(=O)N(C(C)C)C(C)C)n2Cc2ccco2)c1C | inactive: 73% |
| O=C(NCc1cccc(Cl)c1)c1ccc(NC(=O)N2CC3CCCN3c3ccccc32)cc1 (stereo not given) | inactive: 84% |
| Oc1c(C(c2ccc(Cl)cc2Cl)N2CCN(c3ccccc3)CC2)sc2nc(-c3ccco3)nn12 (stereo not given) | inactive: 101% |
| CC(C)Oc1ccc(CNC(=O)c2ccc(CN3CC(=O)N4CCCCC4C3=O)cc2)cc1 (stereo not given) | inactive: 122% |
| CC1(C)CC2(CCO1)NNC(=S)NN2 | inactive: 97% |
| Cc1ccc(CNC(=O)Cn2c(=O)cc(C(F)(F)F)c3c(C)nn(C)c32)cc1 | inactive: 71% |
| O=C(O)CCC(=O)Nc1ccc(-c2ccccc2)cc1 | inactive: 62% |
| CCOc1ccc(-c2nc(Cn3c(=O)cc(-c4ccccc4)c4c(C)nn(C)c43)c(C)o2)cc1 | inactive: 128% |
| Cc1ccc(CNC(=O)C2CCN(S(=O)(=O)c3c(C)noc3/C=C/c3cccs3)CC2)cc1 | inactive: 77% |
| CCCCOc1ccc(-c2nnc(-c3ccco3)n2-c2ccccc2)cc1 | inactive: 78% |

| Compound | survival |
| --- | --- |
| CCCn1c(SCc2nc(-c3ccc(OC)c(OC)c3)no2)nnc1-c1ccccc1 | inactive: 81% |
| Cc1ccc(NC(=O)c2cnn3c(C(F)F)cc(-c4ccccc4)nc23)cc1F | inactive: 66% |
| CC1CCN(C(c2ccccc2)c2nnnn2Cc2ccc(F)cc2)CC1 (stereo not given) | inactive: 111% |
| O=C(NCCc1ccccc1)C1CCC(CNS(=O)(=O)c2ccccc2)CC1 (stereo not given) | inactive: 91% |
| CC(C)Oc1ccc(C(=O)N2CCN(CCc3ccccn3)CC2)cc1 | inactive: 68% |
| CCCc1nc(SC)ncc1C(=O)N1CCN(c2ccc(Cl)cc2)CC1 | inactive: 75% |
| CCCn1c(SCC(N)=O)nnc1C(C)C | inactive: 96% |
| O=c1c2oc3ccccc3c2n(Cc2ccccc2Cl)c(=O)n1Cc1ccco1 | inactive: 73% |
| O=C(Nc1ccc2nc(SCC(=O)N3CCc4ccccc43)sc2c1)c1ccc(F)cc1 | inactive: 73% |
| COc1ccc(CN(Cc2ccco2)c2cnc(S(C)(=O)=O)nc2C(=O)Nc2ccc(C)c(Cl)c2)cc1 | inactive: 47% |
| COc1ccc(NC(=O)C(=O)NCC(c2cccnc2)N2CCc3ccccc32)cc1OC (stereo not given) | inactive: 61% |
| COc1cccc(S(=O)(=O)N2CCN(Cc3ccc4c(c3)OCO4)CC2)c1 | inactive: 75% |
| CCSc1nnc2c3cc(Br)ccc3n(C)c2n1 | inactive: 93% |
| CN(Cc1ccccc1)S(=O)(=O)c1ccc(-c2cnc(C3CC3)o2)cc1 | inactive: 76% |
| Cc1c(C2=CCN(S(=O)(=O)c3cccc(Cl)c3)CC2)c2ccccc2n1CC(=O)N1CCCC1 | inactive: 75% |
| Cc1ccc(NC(=O)C(C)Sc2nc(=O)cc(N)n2-c2cccc(C)c2)cc1 (stereo not given) | inactive: 59% |
| CC(NCc1ccc2c(c1)OCO2)C(=O)NC1CCCCC1 (stereo not given) | inactive: 72% |
| Cc1cccc(N2CCN(C(=O)CN3CCSc4ccccc43)CC2C)c1 (stereo not given) | inactive: 80% |
| CCc1ccc(-c2nc3c(c(SCc4ccccc4F)n2)Cc2c(CO)cnc(C)c2O3)cc1 | inactive: 85% |
| CC1CCc2nn(CC(=O)Nc3ccccc3Cl)cc2C1 (stereo not given) | inactive: 77% |
| COc1ccc(OC)c(CNC(=O)c2ccc(-c3nc(CSc4ccccc4)c(C)o3)cc2)c1 | inactive: 120% |
| CCOc1ccc(NC(=O)NCCc2c(C)nn(C)c2C)cc1 | inactive: 76% |
| COc1ccc(NC(=O)CC2C(=O)N(c3ccc(F)cc3)C(=O)N2Cc2ccco2)cc1 (stereo not given) | inactive: 92% |

| Compound | survival |
| --- | --- |
| Cc1ccccc1CN1C(=O)c2ccccc2Sc2ccc(C(=O)NC(C)c3ccccc3)cc21 (stereo not given) | inactive: 91% |
| CCN1CCOC(=O)C1CC(=O)Nc1cc(C)cc(C)c1 (stereo not given) | inactive: 142% |
| Cc1ccc(N2C(=O)CCSC23C(=O)N(Cc2ccccc2)c2ccccc23)cc1F (stereo not given) | inactive: 89% |
| Cc1cc(C)cc(NS(=O)(=O)c2ccc3[nH]cc(C(=O)N(C)Cc4ccccc4)c(=O)c3c2)c1 | inactive: 102% |
| Cc1ccc(CNC(=O)Cn2c(=O)n(-c3ccc(Cl)cc3)c(=O)c3c(C)c(C)sc32)cc1 | inactive: 78% |
| COc1ccc(OC)c(/C=C(/C#N)c2nc(-c3ccc(-c4ccccc4)cc3)cs2)c1 | inactive: 52% |
| O=C(NCc1ccccc1)c1nn(-c2ccccc2)nc1CO | inactive: 108% |
| CCOc1ccccc1NC(=O)CN1C(=O)CC(c2ccc(OC)c(OC)c2)Sc2ccccc21 (stereo not given) | inactive: 76% |
| Cc1ccc(-c2nnc(C3CCN(S(=O)(=O)c4ccc(C)c(C)c4)CC3)o2)cc1 | inactive: 103% |
| Cn1c(-n2cccc2)c(-c2c(-c3ccccc3)[nH]c3c2c(=O)n(C)c(=O)n3C)c(=O)n(C)c1=O | inactive: 102% |
| CCCCOC(=O)c1ccc(NC(=O)CSc2nc3c(c(=O)[nH]2)CCCC3)cc1 | inactive: 63% |
| COc1ccccc1NC(=O)CN1CCCN(S(=O)(=O)c2ccc(Br)cc2)CC1 | inactive: 66% |
| Cc1nc2ccccn2c(=O)c1NC(=O)c1ccc(C(F)(F)F)cc1 | active: 0% |
| COc1ccc(/C=C(\NC(=O)c2ccccc2)C(N)=O)cc1 | inactive: 79% |
| COc1ccc(NC(=O)c2cccn2-c2nnc(N3CCCCC3)s2)cc1Cl | inactive: 69% |
| CCOc1ccc(NC(=O)Cn2c(C)cc3ccccc3c2=O)cc1 | inactive: 69% |
| Cc1ccc(NC(=O)Cn2c(=O)n(CCCCC(=O)NCc3ccccc3Cl)c(=O)c3ccccc32)cc1C | inactive: 75% |
| N#CCCCSc1nnc(Cc2ccc3c(c2)OCO3)o1 | inactive: 97% |
| CCCCNc1nc2c(S(=O)(=O)c3ccc(C)c(C)c3)nnn2c2ccsc12 | inactive: 43% |
| Cc1ccc(CSc2nc3c([nH]c4ccccc43)c(=O)n2C)cc1 | inactive: 94% |
| Cc1c(-c2nc(-c3ccccc3)no2)nnn1-c1cccc(C(F)(F)F)c1 | inactive: 80% |
| COc1cc(Nc2ncc3c(n2)CCN(Cc2cc(Br)cs2)C3)cc(OC)c1 | inactive: 82% |
| COc1ccccc1CNC(=O)c1ccc2c(c1)nc(C)n2-c1ccccc1OC | inactive: 77% |

| Compound | survival |
| --- | --- |
| COc1ccc(CNC(=O)CSc2nc3ccccc3nc2Cc2ccccc2OC)cc1 | inactive: 70% |
| COC(=O)c1sc(NC(=O)/C=C/c2ccc(OC)c(OC)c2)c(C(=O)OC)c1C | active: 37% |
| COc1cccc(C(=O)c2cn(CC(=O)NCc3ccccc3)c3nc(C)ccc3c2=O)c1 | inactive: 72% |
| COc1ccc(OCc2nc3c4c(-c5ccccc5)c(-c5ccccc5)oc4ncn3n2)cc1 | inactive: 58% |
| COC(=O)c1cc2c(cc1NC(=O)c1cnn(-c3ccc(C)cc3)c1-n1cccc1)OCO2 | inactive: 69% |
| CC(C)NC(=O)CCCN1C(=O)CCn2nc(-c3cccn3C)cc21 | inactive: 88% |
| COc1ccccc1-c1cc(C(=O)Nc2ccccc2C(F)(F)F)no1 | inactive: 71% |
| O=C(O)c1ccc(-n2c(/C=C\c3ccc(O)cc3)nc3ccccc3c2=O)cc1 | active: 58% |
| Cc1ccc(C2=Nc3ccccc3N(CC(=O)NCc3ccc(F)cc3)C(=O)C2)cc1C | inactive: 90% |
| COc1ccc(/C=C(\C#N)c2nc(-c3cc4c(ccc5ccccc54)oc3=O)cs2)cc1O | inactive: 56% |
| CCOC(=O)c1ccccc1NC(=O)c1sc2ncn(Cc3cccc(F)c3)c(=O)c2c1C | inactive: 86% |
| Nc1cc(N)nc(SCCN2CCOCC2)n1 | inactive: 74% |
| COc1cn(CC(=O)Nc2cccc(C)c2C)c(CN2CCCCC2)cc1=O | inactive: 80% |
| Cc1ccc(C)c(NC(=O)CSc2c3c(nc4ccc(Cl)cc24)CCCC3)c1 | inactive: 53% |
| CC1=C(C(=O)Nc2cccnc2)C(c2ccc(Cl)cc2)n2nc(-c3ccccc3)nc2N1 (stereo not given) | inactive: 62% |
| COc1ccc(OC)c(S(=O)(=O)NCc2cccn2Cc2cccc(C)c2)c1 | inactive: 84% |
| COc1ccc(C(=O)Nc2cccc(OCc3cc(=O)n4c5c(sc4n3)CCCC5)c2)cc1 | inactive: 55% |
| Cn1c(=O)c2c(nc3n(-c4ccc(O)cc4)c(-c4ccc(Br)cc4)cn23)n(C)c1=O | inactive: 146% |
| COc1cc(OC)c(C2Nc3c(C)cccc3-c3cc(C)nn32)cc1OC (stereo not given) | inactive: 184% |
| CCN1C(=O)c2ccccc2S(=O)c2ccc(C(=O)N3CCN(c4cccc(C)c4)C(C)C3)cc21 (stereo not given) | inactive: 109% |
| CC1=C(c2ccc(C)cc2)S(=O)(=O)NC1=NCc1cccc(F)c1 | inactive: 92% |
